Results from the supplement of paper PMC4604168 (melanoma cell lines).
The other results are listed elsewhere or left out. Many values rest on one well or one pass, so single values are uncertain.
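Note: cells treated in 1,536-well plates, then fixed and DAPI-stained, with nuclei counted from automated high-throughput microscope images.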

Each compound was assayed on COLO829 (assay: cell count relative to DMSO control; melanoma cells; higher = more viable cells). Conditions: library dose: standard library concentration; 72 h.
Cc1cn(-c2cc(NC(=O)c3ccc(C)c(Nc4nccc(-c5cccnc5)n4)c3)cc(C(F)(F)F)c2)cn1 [nilotinib] + CN(c1ncccc1CNc1nc(Nc2ccc3c(c2)CC(=O)N3)ncc1C(F)(F)F)S(C)(=O)=O [PF562271] (first compound 1 µM, partner dose 0.4 µM) was tested, and the cell count was 88%.
Compound CC(C)C[C@H](NC(=O)[C@H](Cc1ccccc1)NC(=O)c1cnccn1)B(O)O [Bortezomib] + O=C(O)[C@@H]1[O][Sb](=[O])([O][Sb]2(=[O])[O][C@H]([C@H](O)CO)[C@H](O)[C@H](C(=O)O)[O]2)[O][C@H]([C@H](O)CO)[C@@H]1O [stibogluconate] (first compound 0.005 µM, partner dose 10 µM) has a cell count of 6.73%.
For Cc1cc(Nc2cc(N3CCN(C)CC3)nc(/C=C/c3ccccc3)n2)n[nH]1 + CCCCCCCCCCCC1=C(O)C(=O)C=C(O)C1=O [Embelin] (first compound 0.2 µM, partner dose 6 µM), the cell count was 70.6%.
Cc1cc(Nc2cc(N3CCN(C)CC3)nc(/C=C/c3ccccc3)n2)n[nH]1 + C[C@@H]1CCN(C(=O)CC#N)C[C@@H]1N(C)c1ncnc2[nH]ccc12 [CP690550] (first compound 0.2 µM, partner dose 5 µM) gave a cell count of 95.2%.
Cc1cc(Nc2cc(N3CCN(C)CC3)nc(/C=C/c3ccccc3)n2)n[nH]1 + COc1ccc(-c2ccc3c(N4CCOCC4)nc(N4C[C@@H](C)O[C@@H](C)C4)nc3n2)cc1CO [KU0063794] (first compound 0.2 µM, partner dose 0.1 µM) showed a cell count of 59.3%.
In the case of Cn1c(=O)n(-c2ccc(C(C)(C)C#N)cc2)c2c3cc(-c4cnc5ccccc5c4)ccc3ncc21 + C[C@]1(c2nc3c(C(N)=O)cccc3[nH]2)CCCN1 [Veliparib] (first compound 0.02 µM, partner dose 7 µM), the cell count is reported as 78.8%.
In the case of CC(C)C[C@H](NC(=O)[C@H](Cc1ccccc1)NC(=O)c1cnccn1)B(O)O [Bortezomib] + Cc1nc(Nc2ncc(C(=O)Nc3c(C)cccc3Cl)s2)cc(N2CCN(CCO)CC2)n1 [dasatanib] (first compound 0.005 µM, partner dose 0.02 µM), the cell count is reported as 13.9%.
Cc1cc(Nc2cc(N3CCN(C)CC3)nc(/C=C/c3ccccc3)n2)n[nH]1 + C[C@]1(c2nc3c(C(N)=O)cccc3[nH]2)CCCN1 [Veliparib] (first compound 0.2 µM, partner dose 7 µM) showed a cell count of 92.5%.
With Cc1cn(-c2cc(NC(=O)c3ccc(C)c(Nc4nccc(-c5cccnc5)n4)c3)cc(C(F)(F)F)c2)cn1 [nilotinib] + O=c1cc(-c2cccc3c2Sc2ccccc2S3)oc(N2CCOCC2)c1 [KU55933] (first compound 1 µM, partner dose 5 µM) the cell count was 107%.
With COc1ccc(C2=N[C@@H](c3ccc(Cl)cc3)[C@@H](c3ccc(Cl)cc3)N2C(=O)N2CCNC(=O)C2)c(OC(C)C)c1 [Nutlin-3] + COC(=O)c1sccc1S(=O)(=O)Nc1ccc(Nc2ccccc2)cc1OC [GSK0660] (first compound 0.5 µM, partner dose 5 µM) the cell count was 65.8%.
In the case of Cn1c(=O)n(-c2ccc(C(C)(C)C#N)cc2)c2c3cc(-c4cnc5ccccc5c4)ccc3ncc21 + COc1ccc(-c2ccc3c(N4CCOCC4)nc(N4C[C@@H](C)O[C@@H](C)C4)nc3n2)cc1CO [KU0063794] (first compound 0.02 µM, partner dose 0.1 µM), the cell count is reported as 105%.
Work on Cc1cn(-c2cc(NC(=O)c3ccc(C)c(Nc4nccc(-c5cccnc5)n4)c3)cc(C(F)(F)F)c2)cn1 [nilotinib] + CC1(C)NC(=O)N(c2ccc([N+](=O)[O-])c(C(F)(F)F)c2)C1=O [nilutamide] (first compound 1 µM, partner dose 5 µM) yielded a cell count of 103%.
Cn1c(=O)n(-c2ccc(C(C)(C)C#N)cc2)c2c3cc(-c4cnc5ccccc5c4)ccc3ncc21 + CN(NC(=O)CC(=O)NN(C)C(=S)c1ccccc1)C(=S)c1ccccc1 [STA4783] (first compound 0.02 µM, partner dose 0.03 µM) was tested, and the cell count was 47.6%.
For Cc1cn(-c2cc(NC(=O)c3ccc(C)c(Nc4nccc(-c5cccnc5)n4)c3)cc(C(F)(F)F)c2)cn1 [nilotinib] + C[C@@H]1CCN(C(=O)CC#N)C[C@@H]1N(C)c1ncnc2[nH]ccc12 [CP690550] (first compound 1 µM, partner dose 5 µM), the cell count was 122%.
